± gives the standard deviation of the averaged measurements. Laboratory Escherichia coli strains with one amino-acid change in an essential protein, pooled on minimal glucose agar with carbenicillin or gentamicin at twice the control MIC (plus kanamycin and chloramphenicol for the plasmids), 48 h. Fold change of barcode share against drug-free plates; higher = less susceptible. Active = above 20 in both replicates (the paper's putatively resistant). '<' = one read or none on drug, '>' = one read or none on a drug-free plate. Shares are relative, so most strains fall below 1 when a few take over. Listed are strains with at least 15 reads on both drug-free plates, and hits; most hits rest on fewer reference reads. Replicate rank correlation about 0.5. Edits are read from barcodes.
B1: pgk; numbered along this chain (parent)
chain: MSVIKMTDLDLAGKRVFIRADLNVPVKDGKVTSDARIRASLPTIELALKQGAKVMVTSHLGRPTEGEYNEEFSLLPVVNYLKDKLSNPVRLVKDYLDGVDVAEGELVVLENVRFNKGEKKDDETLSKKYAALCDVFVMDAFGTAHRAQASTHGIGKFADVACAGPLLAAELDALGKALKEPARPMVAIVGGSKVSTKLTVLDSLSKIADQLIVGGGIANTFIAAQGHDVGKSLYEADLVDEAKRLLTTCNIPVPSDVRVATEFSETAPATLKSVNDVKADEQILDIGDASAQELAEILKNAKTILWNGPVGVFEFPNFRKGTEIVANAIADSEAFSIAGGGDTLAAIDLFGIADKISYISTGGGAFLEFVEGKVLPAVAMLEERAKK
B2: purC; numbered along this chain (parent)
chain: MQKQAELYRGKAKTVYSTENPDLLVLEFRNDTSAGDGARIEQFDRKGMVNNKFNYFIMSKLAEAGIPTQMERLLSDTECLVKKLDMVPVECVVRNRAAGSLVKRLGIEEGIELNPPLFDLFLKNDAMHDPMVNESYCETFGWVSKENLARMKELTYKANDVLKKLFDDAGLILVDFKLEFGLYKGEVVLGDEFSPDGSRLWDKETLEKMDKDRFRQSLGGLIEAYEAVARRLGVQLD
B3: lptD; numbered along this chain (parent)
chain: MKKRIPTLLATMIATALYSQQGLAADLASQCMLGVPSYDRPLVQGDTNDLPVTINADHAKGDYPDDAVFTGSVDIMQGNSRLQADEVQLHQKEAPGQPEPVRTVDALGNVHYDDNQVILKGPKGWANLNTKDTNVWEGDYQMVGRQGRGKADLMKQRGENRYTILDNGSFTSCLPGSDTWSVVGSEIIHDREEQVAEIWNARFKVGPVPIFYSPYLQLPVGDKRRSGFLIPNAKYTTTNYFEFYLPYYWNIAPNMDATITPHYMHRRGNIMWENEFRYLSQAGAGLMELDYLPSDKVYEDEHPNDDSSRRWLFYWNHSGVMDQVWRFNVDYTKVSDPSYFNDFDNKYGSSTDGYATQKFSVGYAVQNFNATVSTKQFQVFSEQNTSSYSAEPQLDVNYYQNDVGPFDTRIYGQAVHFVNTRDDMPEATRVHLEPTINLPLSNNWGSINTEAKLLATHYQQTNLDWYNSRNTTKLDESVNRVMPQFKVDGKMVFERDMEMLAPGYTQTLEPRAQYLYVPYRDQSDIYNYDSSLLQSDYSGLFRDRTYGGLDRIASANQVTTGVTSRIYDDAAVERFNISVGQIYYFTESRTGDDNITWENDDKTGSLVWAGDTYWRISERWGLRGGIQYDTRLDNVATSNSSIEYRRDEDRLVQLNYRYASPEYIQATLPKYYSTAEQYKNGISQVGAVASWPIADRWSIVGAYYYDTNANKQADSMLGVQYSSCCYAIRVGYERKLNGWDNDKQHAVYDNAIGFNIELRGLSSNYGLGTQEMLRSNILPYQNTL
B4: argE; a variant is named by its letters at X, in order (parent)
chain: MKNKLPPFIEIYRALIATPSISATEEALDQSNADLITLXADWFKDLGFNVEVQPVPGTRNKFNMLASIGQGAGGLLLAGHTDTVPFDDGRWTRDPFTLTEHDGKLYGLGTADMKGFFAFILDALRDVDVTKLKKPLYILATADEETSMAGARYFAETTALRPDCAIXGEPTSLQPVRAHKGHISNAIRIQGQSGHSSDPARGVNAIELMHDAIGHILQLRDNLKERYHYEAFTVPYPTLNLGHIHGGDASNRICACCELHMDIRPLPGMTLNELNGLLNDALAPVSERWPGRLTVDELHPPIPGYECPPNHQLXEVXEKLLGAKTEVXNYCTEAPFIQTLCPTLVLGPGSINQAHQPDEYLETRFIKPTRELITQVIHHFCWH

Variants of: B1
Assay: barcode share on antibiotic plates over drug-free plates; higher = less susceptible
Conditions: with Escherichia coli (laboratory strain); antibiotic: carbenicillin; 2× MIC (3.1 µg/mL)
Description: (§1)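 A pool of E. coli strains, each edited to carry one amino-acid change in an essential protein, was grown for 48 h on minimal glucose agar with or without antibiotic; strain barcodes were sequenced; mean of two replicates.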

Variant | fold change of barcode share
V213Q | 0.415 ± 0.059

Same assay, conditions: with Escherichia coli (laboratory strain); antibiotic: gentamicin; 2× MIC (MIC 0.45 µg/mL)

Variant | fold change of barcode share
V213Q | < 0.0188
V78A | 0.0122 ± 0.0052
V78D | 0.0106 ± 0.0079
V78P | 0.0845 ± 0.091
V78Q | 0.00544 ± 0.0021
V78W | < 0.00548
V189D | 0.0691 ± 0.067
L204P | 0.0314 ± 0.026
L204W | < 0.0158

Variants of: B2
Assay: as above
Conditions: with Escherichia coli (laboratory strain); antibiotic: carbenicillin; 2× MIC (3.1 µg/mL)
Description: as §1

Variant | fold change of barcode share
V25W | 0.245 ± 0.17
V89A | 0.478 ± 0.18
V89W | 0.251 ± 0.11
V188A | 0.302 ± 0.12
V188D | 1.41 ± 0.49
V188P | > 29.6 [active]
V188Q | 0.512 ± 0.13
V188W | 0.217 ± 0.14
L189A | 0.427 ± 0.092
L189P | 0.767 ± 0.14
L189Q | 0.356 ± 0.15
L189W | 0.369 ± 0.1

Same assay, conditions: with Escherichia coli (laboratory strain); antibiotic: gentamicin; 2× MIC (MIC 0.45 µg/mL)

Variant | fold change of barcode share
V25W | < 0.00992
V89A | 0.0113 ± 0.0059
V89W | 0.0524 ± 0.05
V188A | 0.00296 ± 0.0018
V188D | 0.0157 ± 0.0096
V188Q | 0.0109 ± 0.011
V188W | 0.0112 ± 0.0092
L189A | 0.00455 ± 0.00046
L189P | 0.023 ± 0.015
L189Q | 0.00493 ± 0.0033
L189W | 0.00393 ± 0.0022
L24A | < 0.0168
L24Q | < 0.0203
L24W | 0.01 ± 0.0043
V25A | < 0.0142
V25P | < 0.0146
V25Q | 0.0342 ± 0.03
L26P | < 0.01
L26Q | < 0.0177

Variants of: B3
Assay: as above
Conditions: with Escherichia coli (laboratory strain); antibiotic: carbenicillin; 2× MIC (3.1 µg/mL)
Description: as §1

Variant | fold change of barcode share
F417A | 0.554 ± 0.21
F417D | 0.215 ± 0.062
F417P | 0.14 ± 0.072
F417Q | 0.407 ± 0.23
F417W | 0.152 ± 0.068
L540D | 0.0713 ± 0.053
L540P | 0.17 ± 0.023
I582D | 1.22 ± 1.1
I582W | 0.213 ± 0.0032
L651A | 0.256 ± 0.086
L651P | 0.131 ± 0.013
I664A | 0.415 ± 0.14
I664D | 0.226 ± 0.014
I664P | 0.421 ± 0.046
I664Q | 0.354 ± 0.0059
I664W | 0.392 ± 0.081
L736A | 0.332 ± 0.076
L736D | 0.184 ± 0.074
L736Q | 0.316 ± 0.18
L736W | 0.177 ± 0.055

Same assay, conditions: with Escherichia coli (laboratory strain); antibiotic: gentamicin; 2× MIC (MIC 0.45 µg/mL)

Variant | fold change of barcode share
F417A | < 0.0112
F417D | < 0.0104
F417P | < 0.0117
F417Q | < 0.014
F417W | < 0.00948
L540D | < 0.0164
L540P | < 0.0175
I582D | < 0.0171
I582W | < 0.0164
L651A | < 0.00866
L651P | < 0.015
I664A | 0.00566 ± 0.0033
I664D | < 0.00351
I664P | 0.00704 ± 0.0057
I664Q | 0.0243 ± 0.021
I664W | 0.00523 ± 0.0024
L736A | < 0.0102
L736D | < 0.0116
L736Q | < 0.0177
L736W | < 0.00992
L540Q | < 0.0168
L540W | < 0.0168
L651D | < 0.00749
L651W | < 0.0146

Variants of: B4
Assay: as above
Conditions: with Escherichia coli (laboratory strain); antibiotic: carbenicillin; 2× MIC (3.1 µg/mL)
Description: as §1

Variant | fold change of barcode share
PIVVV | 0.444 ± 0.31
LIVVV M209Q | 0.601 ± 0.37
LIVVQ | 0.314 ± 0.03
LIVVD | 0.343 ± 0.067
LIVVP | 0.294 ± 0.14
LIVPV | 1.21 ± 1.4
QIVVV | 0.305 ± 0.088
LQVVV | 1.37 ± 0.4
LIVVV I216A | 0.473 ± 0.063
DIVVV | 0.333 ± 0.03
LDVVV | > 28.4 [active]

Same assay, conditions: with Escherichia coli (laboratory strain); antibiotic: gentamicin; 2× MIC (MIC 0.45 µg/mL)

Variant | fold change of barcode share
PIVVV | 0.00678 ± 0.0046
LIVVV M209Q | < 0.0109
LIVVQ | 0.00538 ± 0.0037
LIVVD | 0.0127 ± 0.012
LIVVP | 0.00812 ± 0.004
LIVPV | < 0.00871
QIVVV | 0.0116 ± 0.011
LQVVV | 0.0177 ± 0.012
LIVVV I216A | 0.00516 ± 0.00088
DIVVV | 0.00586 ± 0.0022
